This is one part of the list. The exact form of the protein is not confirmed.
These sequences were tested against GST-SBP-ILF3 (Homo sapiens) (UniProt Q12906) (assay: targeted RNA Bind-n-Seq). Settings: RBNS binding buffer: 25 mM Tris pH 7.5, 150 mM KCl, 3 mM MgCl2, 0.1% Tween, 0.5 mg/mL BSA, 1 mM DTT; 27 nM protein, 750 pM RNA pool; temperature not stated; high values mean tight binding; sequences stand for … in GGGUAAAAGCGAGGUGAA…CGGGACAAGUAUUAUGGG.

Sequence | binding signal (log2 fold change)
UUUUUUUUUUGAGAGCGAUACGUUCUCCAG [tttttgagapaired] | 0.285
GGUGGUGGUGUUGGUGCCUAACACCGCCGC [gtspaired] | -0.47
UUUUUUUUUUGAGACCGUGACGGUCUCCGG [tttttgagapaired] | 0.314
UUUUUUUUUUGAGAUCGAGUCGAUCUUCUG [tttttgagapaired] | 0.0172
UUUUUUUUUUGAGAGGGCCCCCCUCUCCGG [tttttgagapaired] | 0.78
UUUUUUUUUUGAGACUGGGGCAGUCUUCUG [tttttgagapaired] | 0.75
GUGGUGUGUGUUGGCACCUAACACACAUCG [gtspaired] | -0.861
UUUUUUUUUUGAGAACGGGCCGUUCUCCGG [tttttgagapaired] | 0.63
GUGGUUGGUGUUGGUUCCUAACACCGACUA [gtspaired] | -0.811
UUUUUUUUUUGAGAUCGACGCGAUCUCCUG [tttttgagapaired] | 0.536
GGUGUGUGUGUUGGAACCUAACACAUACGC [gtspaired] | -0.395
GUGUGUGGUGUUGGUCCCUAACACCACGCA [gtspaired] | -0.498
UUUUUUUUUUGAGACUGUAACAGUCUCCUA [tttttgagapaired] | 0.374
UUUUUUUUUUGAGAUGGGUGCCAUCUUCUA [tttttgagapaired] | 0.355
GUGUGGUGUGUUGGAUUCUAACACAUCGCG [gtspaired] | -0.832
GGUGUUGGUGUUGGAGUCUAACACCGACGC [gtspaired] | -0.576
UUUUUUUUUUGAGACCGAACCGGUUUCCAG [tttttgagapaired] | 0.227
UUUUUUUUUUGAGAGUGAGGCACUCUCCAG [tttttgagapaired] | 0.0851
UUUUUUUUUUGAGACGGAGGCCGUCUUCUG [tttttgagapaired] | 0.687
UUUUUUUUUUGAGACGGAAGCCGUUUCCAG [tttttgagapaired] | 0.409
UUUUUUUUUUGAGAUCGUGGCGAUCUCCAG [tttttgagapaired] | 0.519
UUUUUUUUUUGAGAGUGAUCCAUUCUCCGG [tttttgagapaired] | -0.0392

Sequence | binding signal (log2 fold change)
GUUGUGUGUGUUGGAUCCUAACACACGCAG [gtspaired] | -0.712
UUUUUUUUUUGAGACUGGACCAGUCUUCUG [tttttgagapaired] | 0.627
GUGUGGUGUGUUGGUCCCUAACACACCGCG [gtspaired] | -0.352
GUGUGGUGUGUUGGCUCCUAACACACUACA [gtspaired] | -0.676
GUGUGUGGUGUUGGAACCUAACACCACGCG [gtspaired] | -0.779
UUUUUUUUUUGAGACCGGGGCGGUCUUCUA [tttttgagapaired] | 0.815
UUUUUUUUUUGAGACCGACACGGUCUCCUG [tttttgagapaired] | 0.523
UUUUUUUUUUGAGACUGUAACAGUUUCCGG [tttttgagapaired] | 0.59
UUUUUUUUUUGAGACUGGACCAGUCUCCUA [tttttgagapaired] | 0.179
UUUUUUUUUUGAGAUGGCGACCAUCUUCUG [tttttgagapaired] | 0.548
UUUUUUUUUUGAGAGGGAACCCCUCUCCUA [tttttgagapaired] | 0.00509
GUUGUGUGUGUUGGAUCCUAACACACACAG [gtspaired] | -0.533
UUUUUUUUUUGAGACUGAACCAGUCUCCUG [tttttgagapaired] | 0.0517
GUGUGGUGUGUUGGUGUCUAACACAUCACA [gtspaired] | -0.379
UUUUUUUUUUGAGACCGGCACGGUCUCCUA [tttttgagapaired] | 0.147
UUUUUUUUUUGAGACGGAGUCUGUCUCCAG [tttttgagapaired] | 0.677
UUUUUUUUUUGAGAGGGCUACCCUCUCCGG [tttttgagapaired] | 0.526
GUUGGUGGUGUUGGUGCCUAACACCGCCGA [gtspaired] | -0.121
UUUUUUUUUUGAGACGGAUGCCGUUUCCUG [tttttgagapaired] | 0.526
UUUUUUUUUUGAGAUCGAGGCGAUUUCCGG [tttttgagapaired] | 0.486
UUUUUUUUUUGAGAGGGAGCCCCUCUCCUG [tttttgagapaired] | 0.703
UUUUUUUUUUGAGACUGACACAGUUUCCGG [tttttgagapaired] | 0.322

Sequence | binding signal (log2 fold change)
GUGUGGUGUGUUGGCGCCUAACACAUCACA [gtspaired] | -0.372
GUGUGUGGUGUUGGUCCCUAACACCGCACG [gtspaired] | -0.668
UUUUUUUUUUGAGAGCGGUACGUUCUCCUG [tttttgagapaired] | 0.505
UUUUUUUUUUGAGACUGAGACAGUCUCCAG [tttttgagapaired] | 0.267
GUGGUGUGUGUUGGUGUCUAACACAUACCA [gtspaired] | -0.592
UUUUUUUUUUGAGACGGUUGCCGUCUUCUG [tttttgagapaired] | 0.648
UUUUUUUUUUGAGAACGAUCCGUUCUCCAG [tttttgagapaired] | 0.0997
UUUUUUUUUUGAGAGCGGAUCGUUCUCCUA [tttttgagapaired] | 0.103
UUUUUUUUUUGAGAGGGUAUCCUUCUCCUG [tttttgagapaired] | 0.239
GUGUGUGGUGUUGGUGUCUAACACCGCGCA [gtspaired] | -0.475
GUGGUUGGUGUUGGAACCUAACACCGACCG [gtspaired] | -0.624
UUUUUUUUUUGAGAGGGAGUCCUUCUCCGG [tttttgagapaired] | 0.595
GUGUGGUGUGUUGGCUUCUAACACACCGCA [gtspaired] | -0.405
GGUGUGUGUGUUGGCUCCUAACACAUACGC [gtspaired] | -0.727
UUCUUCUCUCCUCCUCGGGAGGGGGGAAGA [ctspaired] | -0.288
UUUUUUUUUUGAGAUGGAAUCCAUCUUCUA [tttttgagapaired] | -0.308
UUUUUUUUUUGAGACGGAUUCCGUCUCCAG [tttttgagapaired] | 0.303
UUUUUUUUUUGAGAGGGGGUCCCUCUCCUG [tttttgagapaired] | 0.841
GUGUGUGGUGUUGGCUCCUAACACCGCACG [gtspaired] | -0.64
UUUUUUUUUUGAGACUGUAGCAGUCUCCAG [tttttgagapaired] | 0.559
UUUUUUUUUUGAGAGCGUAACGCUCUCCGG [tttttgagapaired] | 0.156

Reference: paper PMC5892938
